Measured values: a collection of fitness landscapes (doi:10.1016/j.celrep.2020.107928)
The full ranking holds about 81,000 sequences; the median of “one-hybrid fitness for binding NBS DNA” is about -0.1, and the highest 2% start at about 0.36. This is one part of the list.

B1: Caulobacter ParB omega fusion; a variant is named by its letters at X, in order, B8GW30 (parent)
chain: MESVVVGEPGMSEGRRGLGRGLSALLGEVDAAPAQAPGEQLGGSREAPIEILQRNPDQPRRTFREEDLEDLSNSIREKGVLQPILVRPSPDTAGEYQIVAGERAWRAAQRAGLKTVPIMVRELDDLAVLEIGIIENVQRADLNVLEEALSYKVLMEKFERTQENIAQTIGKSXSHVANXMRLLXLPDEVQSYLVSGELTAXHARAIAAAADPVALAKQIIEGGLSVRETEALARKAPNLSAGKSKGGRPPRVKDTDTQALESDLSSVLGLDVSIDHRGSTGTLTITYATLEQLDDLCNRLTRGI

Variants of: B1
Assay: one-hybrid fitness for binding NBS DNA (the Noc-binding site; scaled: cognate 1, non-cognate 0); higher = stronger binding
Conditions: with NBS DNA site
How it was run: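 Pre- and post-selection plasmids were Illumina-sequenced, three replicate libraries were pooled, and any variant with under 10 reads was removed. The libraries were Caulobacter ParB with four specificity codons randomised, selected in E. coli USO through a HIS3 reporter whose site is 19 bp from the promoter. Cells grew 48 hours at 37°C on M9 without histidine, with 0.1 mM IPTG and 5 mM 3-AT. Fitness is the log change in variant-to-wild-type read ratio, rescaled against cognate and non-cognate.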

one-hybrid fitness for binding NBS DNA, ≤ 0.2:
SHSR
QYYM
TDTY
RNPM
YFQS
NSRW
LKMN
WQSS
GLCD
KKDR
GNML
TCRQ
GSDC
CMHC
RMWF
HCTG
RIGL
LGLC
ETPE
EWPL
GTSC
SQAA
EWGG
KKPS
SCPF
APQA
VHNL
CHMS
PARD
HSIK
VLSN
TRRE
RFGD
PFFS
RQAW
LRWG
PIIS
RSIP
LMAM
AQEA
PAYL
CDTQ
YNSP
FPPN
RSYC
CRTV
QNDA
GWMR
IRAI
FARL
SDST
RISC
RFGG
NMKE
SRAD
CGAK
WRLC
REWM
PAIN
LRLN
SMPV
FHAY
RFML
YMTS
HCCE
WPSW
WYHF
EQYR
GRCC
RIGE
NSKM
AKFM
TELR
ALSV
EQAY
KEKT
PYLN
GHKS
GQWS
TLKS
ASVS
KWQG
QMNI
WRNS
TMCL
RKMM
VNLS
QVIK
FLRG
QGAF
RMLL
RKVK
VWYS
SRCC
LGSE
KKHC
LKCG
TRNE
RQGY
PLML
MHMV
WILC
QIDS
KSRD
RYMI
PDHT
VIQS
ACPT
YTYG
SKQG
NTNR
IMTY
VDAG
QCEI
WNLS
LITA
LNMR
QDDT
PIRY
PPCQ
KSKG
GDRF
TVPQ
IAWT
WKGG
VYVG
GQHA
ATHV
LRPG
VGHR
LDQC
SSSH
RFKE
DSRY
NQTL
APLE
CPNC
RFYD
SADS
SGHC
NLPV
AVIS
YAEM
GSCL
SHGH
YHMS
ADYI
WCVW
PQFS
MMMT
KPHS
NTCC
YNYR
HLCC
SHWL
MEYS
DYCT
LPNI
KRVL
DVNY
VYTV
QIYG
HNPV
AWCG
AEHG
TNTK
RYPD
VPPA
APQL
WFSD
TTLM
IQTP
RKFC
TPHR
PPIY
YLQR
GRAG
QNNQ
LNCF
NQHR
VLMC
YGVS
KMNG
TNKR
TAPN
NMNC
DVAW
ETNT
TKTG
CSDI
HTHV
QLTF
PVLW
TNRS
THVE
QYWE
RPWY
ESSS
KATK
HLKV
TSMI
ITSM
VPNI
GQAK
GALD
GPPT
VCCC
MLLR
KDPC
RGTI
DMGP
NPTL
TNPW
PCYN
GQPS
RQPS
QNKY
QNFW
TVAY
WAQS
YEPL
HHII
HDMR
QRFL
PTLD
RKNM
FPPG
PKAV
AQAY
MKKT
PPAH
SYGV
HQTT
SLDA
NCPS
ASQN
LYLM
VCQP
PTIE
WNPT
NCII
QGVG
NSES
RYND
WYQL
CMSG
VRCS
SHPP
ALMK
ITHT
RQCV
YQGS
AYTV
VSES
GVLC
RRAI
SEFT
HFLP
RYCM
APGR
NCTN
KRCH
ILAS
GACG
NGQG
TLYY
APYP
ALLT
VRAA
EWGS
ITLL
IPGT
QPMD
RYTA
RMHD
RHEE
ADCW
SRRP
SGQT
QGYC
HLDT
PIKL
FAPD
RKFL
DCMS
SQST
RMGF
DGWN
VGSN
QAGI
NIPR
LLTQ
WISH
ARRS
INGE

one-hybrid fitness for binding NBS DNA, 0.244:
QFQV

one-hybrid fitness for binding NBS DNA, 0.499:
RIKS

one-hybrid fitness for binding NBS DNA, 0.293:
QRGD

one-hybrid fitness for binding NBS DNA, 0.306:
QRND

one-hybrid fitness for binding NBS DNA, 0.675:
RIKR

one-hybrid fitness for binding NBS DNA, 0.276:
TSSR

one-hybrid fitness for binding NBS DNA, 0.384:
RIAR

one-hybrid fitness for binding NBS DNA, 0.354:
RYKA

one-hybrid fitness for binding NBS DNA, 0.352:
RTIT

one-hybrid fitness for binding NBS DNA, 0.572:
QTYT

one-hybrid fitness for binding NBS DNA, 0.556:
QRNY
